PubChem BioAssay AID1508623 (National Center for Advancing Translational Sciences (NCATS), 2021)
Out of some 48,000 compounds screened, about 450 (0.94%) were called active. About 19% were inconclusive and are not listed. Calls come from the whole dose curve; as a rule, active = well fitted inhibition curve with a large enough effect; inconclusive = small, poorly fitted or top-dose-only effect; inactive = no such curve, though single readings can be large or run the other way. The list shows a part of the results.

assay: Primary qHTS for Identification of Small Molecule Inhibitors of Huntingtin Promoter Activity; conditions: HEK293 HTT promoter firefly luciferase reporter (activity 0% = vehicle and -100% = no light), 24 h; series mostly up to 57.5 µM; activity change, negative = inhibition: at the top concentration; note: nearly all actives have a fitted effect of over 50% in size
How it was run: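 Luminescence was read after Dual-Glo reagent and a 10 min room-temperature incubation. Values were normalized to vehicle (0% activity) and zero RLU (-100% activity). Reporter HEK293 cells had been exposed to compounds (up to 57.5 uM final) for 24 h.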

Activity change, negative = inhibition, inactive:
Cn1cc(S(=O)(=O)c2ccccc2)c(=O)c2cc(F)c(N3CCN(c4ccc(F)cc4)CC3)cc21 -6.94%
CCOc1ccc(CCNC(=O)C(C)n2nc(C)n3c(cc4occc43)c2=O)cc1OCC (stereo not drawn) -19.9%
Cc1ccc(Cl)cc1N1CCN(C(=O)c2cn(C)c3ccc(S(=O)(=O)N(C)C4CCCCC4)cc3c2=O)CC1 -2.32%
CC(=O)Nc1ccc(NC(=O)C(Cc2ccccc2)N2Cc3ccccc3C2=O)cc1 (stereo not drawn) -13.5%
Cc1cccc(N2CCN(C(=O)c3c(C)oc4nc(C)nc(N5CCCC5)c34)CC2C)c1 (stereo not drawn) -22.1%
Cc1ccc(NC(=O)Cn2c(=O)n(CCC(=O)NCCc3ccccc3)c(=O)c3ccccc32)cc1 1.83%
O=C(Cn1cnc(S(=O)(=O)N2CCCC2)c1)Nc1ccccc1 -17.9%
Cc1ccc(-n2ncc3c(Nc4cccc(C)c4)ncnc32)cc1 66.6%
COc1cccc(-n2c(SCC(=O)N3CCCCC3)nc3c([nH]c4ccccc43)c2=O)c1 -8.53%
COc1ccc(NC(=O)c2c(N)c(C(=O)c3ccc(C)cc3)n3ccccc23)cc1OC -6.78%
Cc1cc(C)c2c(-n3cccc3)c(C(=O)NCCCN3CCCCC3)sc2n1 -4.27%
Cc1ccc(C)c(NC(=O)C2CCN(c3nn4c(=O)cc(C)nc4s3)CC2)c1 -16.4%
CCN1CCN(Cc2nc3cc(NC(=O)c4ccccc4[N+](=O)[O-])ccc3n2CC)CC1 -10.2%
Cc1ccccc1OCCSc1nc(C)c(Cc2ccccc2)c(=O)[nH]1 -22.3%
COc1ccc(-c2nn(C)c3sc(C(=O)N4CCN(c5ccccc5F)CC4)cc23)cc1OC -11%
COc1ccccc1-c1cc(NC(=O)COc2ccccc2Cl)n(-c2ccccc2)n1 -3.29%
Cc1ccc(-c2nc3sccn3c2Nc2ccccc2C)cc1 -12.6%
COc1cccc(CNC(=O)CN2C(=O)CSc3ccc(S(=O)(=O)N(C)C)cc32)c1 2.35%
CC1CCN(C(=O)c2cnn(-c3ccc(Cl)cc3)c2C2CCN(C(=O)OC(C)(C)C)CC2)CC1 -5.36%
CC(C)(C)C1CCc2c(sc(NC(=O)c3cccc(Cl)c3)c2C(N)=O)C1 (stereo not drawn) -22.2%
CSCCC(NS(=O)(=O)c1ccc2c(c1)oc(=O)n2C)C(=O)N1CCN(c2cc(Cl)ccc2C)CC1 (stereo not drawn) -25.8%
COc1ccc(NC(=O)CSc2oc(-c3ccc(C)cc3)nc2S(=O)(=O)c2ccc(C)cc2)c(OC)c1 -17.2%
CCN(CCCNC(=O)c1cc2cc3cc(OC)ccc3nc2s1)c1cccc(C)c1 0.897%
Cc1cc2c(cc3c(SCc4ccc(Cl)cc4)nnc(C)n32)o1 -9.43%
Cc1cccc(N2CCN(C(=O)c3nn(C)c4c3CSc3ccccc3-4)CC2C)c1 (stereo not drawn) -22%
COc1ccc2c(c1)c1c(c(=O)n(-c3cccc(C)c3)c(=O)n1CC(=O)Nc1c(C)cc(C)cc1C)n2C -7.47%
Cc1cn(C)c(CC(=O)NCc2ccc(F)cc2)c1C(=O)O -9.8%
Cc1cc(C)cc(NC(=O)CN2C(=O)COc3ccc(S(=O)(=O)Nc4ccccc4)cc32)c1 -9.1%
CCc1cccc(NC(=O)CNS(=O)(=O)c2ccc3nc(C)sc3c2)c1 -2.46%
CCOC(=O)c1ccccc1NC(=O)CSc1nc2ncccc2o1 -5.5%
Cc1ccc2nc(-c3ccncc3)c(Nc3ccccc3C)n2c1 -6.82%
CC1=C(c2ccc(C)cc2)S(=O)(=O)N=C1N1CCN(c2ccccc2)CC1 -5.4%
CCC(C)NC(=O)c1cn(CC)c2ccc(S(=O)(=O)N3CCCCC3)cc2c1=O (stereo not drawn) 10.2% [at 11.5 µM]
CCn1cc(C(=O)NCc2ccccc2)c(=O)c2cc(S(=O)(=O)N3CCCCC3)ccc21 11.6% [at 11.5 µM]
Cc1ccc(NS(=O)(=O)c2ccc3c4c(cccc24)C(=O)N3)c(C)c1 -21.9%
Cc1ccc(C(NC(=O)Cc2cccs2)C(=O)Nc2ccc(C(C)C)cc2)cc1 (stereo not drawn) -5.76%
CN(Cc1ccccc1)S(=O)(=O)c1ccc(F)c(C(=O)Nc2ccccc2C(F)(F)F)c1 -26.1%
Cc1cccc(-c2nc3c4ccccc4nc(NCc4ccccc4Cl)n3n2)c1 46.5%
O=C(COc1ccccc1)N(Cc1cccnc1)c1nc2ccc(Cl)cc2s1 -3.74%
O=C(Nc1ccc(N2CCC(N3CCCCC3)CC2)c(C(=O)O)c1)c1ccccc1 -7.44%
CNS(=O)(=O)c1cn(CC(=O)N2CCN(c3ccc(OC)cc3)CC2)cc1S(=O)(=O)NC 11.5%
CC(C)NC(=O)c1ccc(Cn2c(=O)c3cccn3c3cccnc32)cc1 -5.6%
COc1ccc(CC(=O)NC2CC(=O)N(c3ccc4c(c3)OCCO4)C2)cc1 (stereo not drawn) -10.7%
Nc1c(C(=O)Nc2cccc(Cl)c2)sc2nc3c(cc12)CN(Cc1ccccc1)CC3 -22.5%
CCOC(=O)c1c(NC(=O)C(C)Sc2cn(CCNC(=O)c3ccc(OC)c(OC)c3)c3ccccc23)sc2c1CCC2 (stereo not drawn) -27.1%
CCOCCCn1c(=N)c(S(=O)(=O)c2ccc(C)cc2)cc2c(=O)n3ccccc3nc21 1.23%
O=C(NCCC1=CCCCC1)c1ccc2c(c1)N(Cc1ccc(F)cc1)C(=O)c1ccccc1S2(=O)=O -23.5%
O=C(CSc1nncn2c1cc1sccc12)Nc1ccccc1C(F)(F)F -23.2%
CCOC(=O)c1c(C)oc2nc(C)nc(NCc3ccc(C)cc3)c12 7.87%
CCN1CCN(Cc2c(O)ccc3c(=O)c(Oc4ccccc4Cl)c(C(F)(F)F)oc23)CC1 -16.6%
CO[C@]1(NC(=O)CSC(F)F)C(=O)N2C(C(=O)O)=C(CSc3nnnn3CCO)CO[C@H]21 7.29%
COCCCNc1nc2c(-c3ccccc3)nnn2c2ccccc12 -20.8%
COC(=O)c1ccccc1NC(=O)c1cc2nc(-c3ccccc3)cc(-c3ccccc3)n2n1 -1.27%
Cc1ccccc1C(=O)NCC(c1cccnc1)N1CCc2ccccc21 (stereo not drawn) -25.3%
COc1ccc(NC(=O)C2(c3cccs3)CCOCC2)cc1Cl -8.3%
COc1cccc(N2CCN(C(=O)c3c(C)oc4ncnc(N5CCCCC5)c34)CC2)c1 -22.6%
COC(=O)CCCCC(CCSS/C(CCO)=C(\C)N(C=O)Cc1cnc(C)nc1N)SC(C)=O (stereo not drawn) -3.95%
Cc1ccc(-c2nnc(Nc3ccc(O)cc3)c3ccccc23)cc1S(=O)(=O)NCc1nc2ccccc2[nH]1 -6.76% [at 11.5 µM]
O=C1CC(=O)Nc2cc(S(=O)(=O)N3CCOc4ccccc43)ccc2N1 -15.8%
CC(C)CN(CCCNC(=O)CN1C(=O)COc2ccc(S(=O)(=O)N3CCCCCC3)cc21)CC(C)C -12%
COc1cc(NC(=O)CSc2nc(C)c(C(=O)Nc3ccccc3)c(-c3ccc(OC)c(OC)c3)c2C#N)c(OC)cc1Cl -25.6%
Cc1ccc(Cl)cc1N1CCN(CCCNc2ncnc3onc(-c4ccc(F)cc4)c23)CC1 -6.16%
COc1ccccc1CNC(=O)CN1C(=O)CSc2ccc(S(=O)(=O)N(C)C)cc21 -7.71%
O=C(CCNS(=O)(=O)c1ccc2c(c1)CCN2C(=O)C1CC1)N1CCN(c2ccccc2F)CC1 -43.1%
CCOc1ccc(S(=O)(=O)N2CCN(c3ccc(Cl)c(Cl)c3)CC2)c2ccccc12 -1.88%
CCCn1c(CCC(=O)Nc2cc(Cl)c(OC)cc2OC)nc2cccnc21 -15.7%
Cc1ccc(C)c(NC(=O)CSc2ncc3c(n2)-c2ccc(Cl)cc2N(C)S3(=O)=O)c1 -0.814%
COc1ccc(NC(=O)CC2C(=O)N(c3ccc(C)cc3)C(=O)N2C2CCCCC2)cc1 (stereo not drawn) -15.5%
O=C(CCSCc1ccccc1Cl)N1CCN(c2cccc(Cl)c2)CC1 -18.4%
CCn1nc(-c2ccccc2)c(-c2ccccc2)c(C(=O)Nc2nc(C)c(C(=O)N(C)C)s2)c1=O 4.89%
O=C(O)C1CCC1 1.21%
CCc1nc2cccnc2n1-c1ccc(CC(=O)Nc2ccc(C)cc2)cc1 -26.4%
O=C(Cn1c(=O)n(-c2ccccc2Cl)c(=O)c2sc3ccccc3c21)N1CCCC1 -13.1%
CCOc1ccc(CNC(=O)c2cnc3sc(N(CC)CC)nn3c2=O)cc1OC -2.83%
Cc1cc(C)cc(NC(=O)CCc2nnc3n(CC(C)C)c(=O)c4ccccc4n23)c1 0.36%
CC(C)N(Cc1ccccc1)C(=O)CN1C(=O)COc2ccc(S(=O)(=O)NC3CCCC3)cc21 -7.78%
Nc1cccc2c1CN(C1CCC(=O)NC1=O)C2=O (stereo not drawn)
Cc1ccc(NC(=O)CSc2nc3nccnc3c(=O)n2CCc2c[nH]c3ccccc23)cc1 -11.7%
CCOC(=O)c1ccc(OCCN2C[C@H](O)[C@@H](O)[C@H](O)[C@H]2CO)cc1 -0.415%
CCN(C(=O)CSc1nc2ccccc2n1CC(=O)Nc1ccccc1C)c1ccccc1 -2.77%
COc1cc(CNc2ccc3[nH]c(=O)[nH]c3c2)ccc1OCc1ccccc1F -22.4%
COc1ccc(-n2ccn(Cc3ccccc3Cl)c(=O)c2=O)cc1OC -9.4%
CN(C)c1ccc(C(CNS(=O)(=O)c2ccc(Br)cc2)N2CCCC2)cc1 (stereo not drawn) -2.69%
CC(C)Cc1nn2c(=O)cc(COC(=O)c3ccc4c(c3)OCO4)nc2s1 -22.4%
CCOC(=O)c1cc2c(=O)n3ccccc3nc2n(CCCOC)c1=NC(=O)C(C)(C)Oc1ccc(Cl)cc1 -3.96%
CC(=O)Nc1ccc(O)cc1
COc1ccc(CNC(=O)CSc2nc3ccsc3c(=O)n2Cc2ccccc2Cl)cc1 -30.5%
CCc1ccc(N2C(=O)CC(c3cc(OC)ccc3OC)C3=C2COC3=O)cc1 (stereo not drawn) -24.7%
Cc1ccc(NC(=O)Cn2ncn3c(cc4ccccc43)c2=O)c(C)c1 -21.2%
CCOc1ccc(C2CC(=O)n3nc(-c4ccc(C)cc4)nc3S2)cc1 (stereo not drawn) -0.394%
COc1ccccc1CNC(=O)Cc1csc2nc(-c3ccc(Cl)cc3)cn12 -26.5%
CCOc1cc(CNC(=O)c2ccc(C)c(NC(=O)c3nsc4ccccc34)c2)ccc1OC 1.98%
CC(NC(=O)c1ccc2c(c1)N(Cc1ccc(Cl)cc1)C(=O)c1ccccc1S2(=O)=O)c1ccccc1 (stereo not drawn) -10.2%
